Measured values reported in the RNAGym collection of RNA variant scans (doi:10.7554/elife.90254).
The source gives no read counts; variants with many changes may rest on few reads.

B1: OR4K15 (parent)
chain: GUUAACGGUCAUAGGCCAUGGAAACUAGGAGCACCAUUUCGCUGCCAGUGAAGAAAUGAACAAAGAAAAUCUGGGCCAGGCAGGCAUCAAAAGAAAUAGUCUUGCGCUCAACCAGAAAGUCUGUAAUCAUUUUAAGGGUA

Variants of: B1
Experiment: self-cleavage, relative activity (ratio to wild type); higher = more cleavage; in vitro, sequencing; the parent is a self-cleaving ribozyme

Variant	self-cleavage
U37C A59G A62G A86G	1.65
U37A A52G A56G G119C	1.68
A36G U49C A62C A67G U131C	1.34
U37C G41C G58A A82C	0.26
U37C A63G A92G A96G	0.54
U37C A55G A66G	1.54
A36G A98G U100C	2.37
A36U A47U U139C	0.65
A36G A94U U102A	0.97
A36G A60G A62G U120C	0.54
A36G U87C A135G	1.62
A36G U39C A60G G79A C112A	0.02
U37C A64G C88U	1.63
U37C G84C A95G	0.78
U37C A82G G106A	0.01
A36U U38C A59U A110G	0.27
U38A A51G U70C U72C A129C	0.08
A36G A55G A64G A86U U108C	0
A36G U37C A56G G137A U139C	0.28
U37C A82G U102C	1.16
U38C A52G A98G U103C U132A	0.15

Variant	self-cleavage
U37C A52U A60G U122A	0.34
A36G A86G U102C	1.56
A36G U38A A78G U100C	0.1
U37C G44U A55U C61U A62U U70A A118G	0.97
A36C A51G G80A A111G U127C	0
U37C A110U U130C A134G	0.9
A36U A54G A90G U132A	0.89
U38A A111G A116G	0.06
U37A A52U A55G U57C U132C	0.75
U37C A56G U87G U124C	0.26
A36G U39C A63G A91G	1.18
U38A A82G U127C	0.35
U37C A111G A114U	0.03
A36G U87C U97A U120A	1.57
C35U G75A A134G	0.03
U38A A89G A91G U100C	2.55
U37C C61A A118G	1.2
C34U A117G U131C	1.15
A36G U100C U108C A117G A140G	0.01
U38A U57C A86G U133G	1.06
U37C A63G A86G U97C	0.54

Variant	self-cleavage
U37C U39A A66G A86G	1.15
A36C A67G U122C A135G	1.33
U38C A54G A110U A118G	0.96
C35U A60U U70A	0.65
U37C A56G U72C U87C	0.34
A36G U87C G104A	0.02
U37C U39C A52G U100C	1.81
U38C A52G A64G U127C	1.15
A36U A51G A68G	1.95
U37C A95G A129G U131C	2.15
U37C U70C A94G	0.74
U37A U39C A59U A90G U103C	0.25
A36U A51G U130C	1.72
A36U A56U U132C	2.22
A36U A86G U132C	0.8
U37C A60U A69G U122C	1.1
C35U U43A A111C A114G	0.01
A36U U39G U70C	1.17
U38A A47G U130C	0.48
A36U A55G U127C	1.78
A36U A78U C88A A116G U122C	0.06

Variant	self-cleavage
U37C A126G U130C	1.12
C35U A51G A62G U100A	0.65
A36U A52G A135G	2.14
U37C A63G A114G	0.56
A36G C128U A129G	1.92
C35U U39A A111G A126G	0
A36G U37C A82U	0.34
A36U G83U U124C	0.51
A36G A82U U131G	0.3
U37C A82U A140G	0.11
A36G A54G A69G U70C	0.36
A36U A56G A59G A135G	0.93
U38A A91U A96U U100C A111G A126G U132C	0
A36G A54G A98G U100C U108C U132C	0
U37C A52U A64G A91G A126G	0.75
U37C A66G U72C A78U A117G A126U	0.09
U37C U39C A64G A86G U122G U131A	2.15
U38A U39A A69G C76U A117G	0.07
U37C A59G A60G U72A A91G A117U	0.18
U37G A91G A98U	1.23
U37C U39A U102C U130C	2.36
